This passage reports AlphaScreen luminescence signal results from the supplement of paper PMC12423691.

Some of the results follow. Binding of human transcription factors and regulators to the viral nucleoprotein by AlphaScreen, crude cell-free proteins, amounts not normalised, one pass. Fold of the Venus control; higher = more signal. No active / inactive call. Single-pass screen; sequences are the whole Swiss-Prot entries looked up by name.

The labels stand for the following.
B1: HDAC4, P56524 (protein)
chain: MSSQSHPDGLSGRDQPVELLNPARVNHMPSTVDVATALPLQVAPSAVPMDLRLDHQFSLPVAEPALREQQLQQELLALKQKQQIQRQILIAEFQRQHEQLSRQHEAQLHEHIKQQQEMLAMKHQQELLEHQRKLERHRQEQELEKQHREQKLQQLKNKEKGKESAVASTEVKMKLQEFVLNKKKALAHRNLNHCISSDPRYWYGKTQHSSLDQSSPPQSGVSTSYNHPVLGMYDAKDDFPLRKTASEPNLKLRSRLKQKVAERRSSPLLRRKDGPVVTALKKRPLDVTDSACSSAPGSGPSSPNNSSGSVSAENGIAPAVPSIPAETSLAHRLVAREGSAAPLPLYTSPSLPNITLGLPATGPSAGTAGQQDAERLTLPALQQRLSLFPGTHLTPYLSTSPLERDGGAAHSPLLQHMVLLEQPPAQAPLVTGLGALPLHAQSLVGADRVSPSIHKLRQHRPLGRTQSAPLPQNAQALQHLVIQQQHQQFLEKHKQQFQQQQLQMNKIIPKPSEPARQPESHPEETEEELREHQALLDEPYLDRLPGQKEAHAQAGVQVKQEPIESDEEEAEPPREVEPGQRQPSEQELLFRQQALLLEQQRIHQLRNYQASMEAAGIPVSFGGHRPLSRAQSSPASATFPVSVQEPPTKPRFTTGLVYDTLMLKHQCTCGSSSSHPEHAGRIQSIWSRLQETGLRGKCECIRGRKATLEELQTVHSEAHTLLYGTNPLNRQKLDSKKLLGSLASVFVRLPCGGVGVDSDTIWNEVHSAGAARLAVGCVVELVFKVATGELKNGFAVVRPPGHHAEESTPMGFCYFNSVAVAAKLLQQRLSVSKILIVDWDVHHGNGTQQAFYSDPSVLYMSLHRYDDGNFFPGSGAPDEVGTGPGVGFNVNMAFTGGLDPPMGDAEYLAAFRTVVMPIASEFAPDVVLVSSGFDAVEGHPTPLGGYNLSARCFGYLTKQLMGLAGGRIVLALEGGHDLTAICDASEACVSALLGNELDPLPEKVLQQRPNANAVRSMEKVMEIHSKYWRCLQRTTSTAGRSLIEAQTCENEEAETVTAMASLSVGVKPAEKRPDEEPMEEEPPL
B2: NFKB1, P19838 (protein)
chain: MAEDDPYLGRPEQMFHLDPSLTHTIFNPEVFQPQMALPTDGPYLQILEQPKQRGFRFRYVCEGPSHGGLPGASSEKNKKSYPQVKICNYVGPAKVIVQLVTNGKNIHLHAHSLVGKHCEDGICTVTAGPKDMVVGFANLGILHVTKKKVFETLEARMTEACIRGYNPGLLVHPDLAYLQAEGGGDRQLGDREKELIRQAALQQTKEMDLSVVRLMFTAFLPDSTGSFTRRLEPVVSDAIYDSKAPNASNLKIVRMDRTAGCVTGGEEIYLLCDKVQKDDIQIRFYEEEENGGVWEGFGDFSPTDVHRQFAIVFKTPKYKDINITKPASVFVQLRRKSDLETSEPKPFLYYPEIKDKEEVQRKRQKLMPNFSDSFGGGSGAGAGGGGMFGSGGGGGGTGSTGPGYSFPHYGFPTYGGITFHPGTTKSNAGMKHGTMDTESKKDPEGCDKSDDKNTVNLFGKVIETTEQDQEPSEATVGNGEVTLTYATGTKEESAGVQDNLFLEKAMQLAKRHANALFDYAVTGDVKMLLAVQRHLTAVQDENGDSVLHLAIIHLHSQLVRDLLEVTSGLISDDIINMRNDLYQTPLHLAVITKQEDVVEDLLRAGADLSLLDRLGNSVLHLAAKEGHDKVLSILLKHKKAALLLDHPNGDGLNAIHLAMMSNSLPCLLLLVAAGADVNAQEQKSGRTALHLAVEHDNISLAGCLLLEGDAHVDSTTYDGTTPLHIAAGRGSTRLAALLKAAGADPLVENFEPLYDLDDSWENAGEDEGVVPGTTPLDMATSWQVFDILNGKPYEPEFTSDDLLAQGDMKQLAEDVKLQLYKLLEIPDPDKNWATLAQKLGLGILNNAFRLSPAPSKTLMDNYEVSGGTVRELVEALRQMGYTEAIEVIQAASSPVKTTSQAHSLPLSPASTRQQIDELRDSDSVCDSGVETSFRKLSFTESLTSGASLLTLNKMPHDYGQEGPLEGKI
B3: CITED1, Q99966 (protein)
chain: MPTTSRPALDVKGGTSPAKEDANQEMSSVAYSNLAVKDRKAVAILHYPGVASNGTKASGAPTSSSGSPIGSPTTTPPTKPPSFNLHPAPHLLASMHLQKLNSQYQGMAAATPGQPGEAGPLQNWDFGAQAGGAESLSPSAGAQSPAIIDSDPVDEEVLMSLVVELGLDRANELPELWLGQNEFDFTADFPSSC
B4: TBX10, O75333 (protein)
chain: MAAFLSAGLGILAPSETYPLPTTSSGWEPRLGSPFPSGPCTSSTGAQAVAEPTGQGPKNPRVSRVTVQLEMKPLWEEFNQLGTEMIVTKAGRRMFPPFQVKILGMDSLADYALLMDFIPLDDKRYRYAFHSSAWLVAGKADPATPGRVHFHPDSPAKGAQWMRQIVSFDKLKLTNNLLDDNGHIILNSMHRYQPRFHVVFVDPRKDSERYAQENFKSFIFTETQFTAVTAYQNHRITQLKIASNPFAKGFRESDLDSWPVAPRPLLSVPARSHSSLSPCVLKGATDREKDPNKASASTSKTPAWLHHQLLPPPEVLLAPATYRPVTYQSLYSGAPSHLGIPRTRPAPYPLPNIRADRDQGGLPLPAGLGLLSPTVVCLGPGQDSQ
B5: TADA3, O75528 (protein)
chain: MSELKDCPLQFHDFKSVDHLKVCPRYTAVLARSEDDGIGIEELDTLQLELETLLSSASRRLRVLEAETQILTDWQDKKGDRRFLKLGRDHELGAPPKHGKPKKQKLEGKAGHGPGPGPGRPKSKNLQPKIQEYEFTDDPIDVPRIPKNDAPNRFWASVEPYCADITSEEVRTLEELLKPPEDEAEHYKIPPLGKHYSQRWAQEDLLEEQKDGARAAAVADKKKGLMGPLTELDTKDVDALLKKSEAQHEQPEDGCPFGALTQRLLQALVEENIISPMEDSPIPDMSGKESGADGASTSPRNQNKPFSVPHTKSLESRIKEELIAQGLLESEDRPAEDSEDEVLAELRKRQAELKALSAHNRTKKHDLLRLAKEEVSRQELRQRVRMADNEVMDAFRKIMAARQKKRTPTKKEKDQAWKTLKERESILKLLDG

For this assay, the target named is nucleoprotein N of Crimean-Congo hemorrhagic fever virus. Nature of the assay: AlphaScreen luminescence signal relative to Venus negative control (fold); higher = stronger binding to CCHFV N. How it is done:
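AlphaScreen binding of cell-free made, FLAG-GST-tagged human transcription factors and regulators (crude translation products) to biotinylated N protein; signal as fold of the FLAG-GST-Venus control. One pass.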
For orientation: In Alpha technology, singlet oxygen from a donor bead excites a nearby acceptor bead.
B1 registered an AlphaScreen luminescence signal of 3.02. In turn, B2 registered an AlphaScreen luminescence signal of 1.35. In the case of B3, the AlphaScreen luminescence signal was determined as 1.35. The molecule B4 had an AlphaScreen luminescence signal of 2.37. B5 had an AlphaScreen luminescence signal of 2.
